# Measurements from US10487153B2, “Carbonic anhydrase IX-specific antibodies and uses thereof” (National Research Council of Canada, priority 2015, dated 2019).
# Where two headings read alike, the source gives them in different places.
# B1: c12H8: chimeric 12H8, human kappa1 light chain and human IgG1 heavy chain; SEQ ID NO:29 and 30 (protein)
# light: DVVMTQTPLTLSVTIGQPASISCKSSQSLLDSDGKTYLNWLLQRPGQSPKRLIYLVSKLDSGVPDRFTGSGSGTDFTLKISRVEAEDLGVYYCCQGTHFPWTFGGGTKLEIKRTVAAPSVFIFPPSDEQLKSGTASVVCLLNNFYPREAKVQWKVDNALQSGNSQESVTEQDSKDSTYSLSSTLTLSKADYEKHKVYACEVTHQGLSSPVTKSFNRGEC
# heavy: QIQLVQSGPELKKPGETVKISCKASGYTFTNYGMNWVQQAPGKGLKWMGWINTYTGEPTYADDFKGRFAFSLETSASTAYLQINNLKNEDMATYFCARGGIATPTSYWGQGTTLTVSS[letters of human IgG1 constant region omitted]
# modifications: Chimeric 12H8 Light Chain; Chimeric 12H8 Heavy chain
# How the values were obtained:
# [1] = target: T1, native peptides covering the hCA-IX ECD (Homo sapiens, UniProt Q16790); format: binding; set-up: key: −, no binding; +, binding
# T1 construct: expressed in transfected cells; host or cells: yeast cells (surface display, whole yeast cell ELISA)
# Method: (§1) The hCA-IX fragments covering the entire hCA-IX ECD (FIG. 13A) or the PG domain alone (FIG. 13B) were expressed as fusion proteins (Aga2-HA-(CA-IX)-MYC (pPNL6 vector) or (CA-IX)-Aga2-MYC (pPNL200 vector)) on the yeast cell surface. The YSD vectors (pPNL6 and pPNL200) were from The Pacific Northwest National Laboratory, USA. […] The binding of the mAb to yeast cells was performed using a whole yeast cell ELISA. […] The binding of mAb to denatured yeast cells was normalized to the anti-MYC signal. The ratio of normalized anti-CA-IX signals of each mAb on native versus denatured hCA-IX peptide was thus indicative of the conformational nature of the epitope. In the native hCA-IX experiments, the commercial M75 mAb was used as a positive control; the epitope of this mAb is known (Zavada et al., 2000) and is located in the hCA-IX PG domain.
# [2] = target: T2, denatured peptides covering the hCA-IX ECD (Homo sapiens, UniProt Q16790); format: binding; set-up: key: −, no binding; +, binding
# T2 construct: expressed in transfected cells; host or cells: yeast cells (surface display, whole yeast cell ELISA)
# Method: as §1
# [3] = system: native peptides covering the hCA-IX ECD; format: binding, human; set-up: key: −, no binding; +, binding
# Method: as §1
# [4] = system: denatured peptides covering the hCA-IX ECD; format: binding, human; set-up: key: −, no binding; +, binding
# Method: as §1
# [5] = system: native peptides covering the hCA-IX ECD PG domain; format: binding, human; set-up: key: −, no binding; +, binding; settings: PNL6 Aga2-HA-X-MYC; clone 15 A + B; Plasmid Ctrl, no peptide
# Method: as §1
# [6] = target: T3, native peptides covering the hCA-IX ECD PG domain (Homo sapiens, UniProt Q16790); format: binding; set-up: key: −, no binding; +, binding; settings: native PG domain, PNL6
# T3 construct: encompassing aa 37-140 of the native hCA-IX PG domain; expressed in transfected cells; host or cells: yeast cells (surface display)
# Method: as §1
# [7] = target: T4, human CA-XII extracellular domain (ECD) (Homo sapiens, UniProt O43570); test: CA-XII binding by SPR; settings: 100 nM of human CA-XII ECD
# T4 construct: SPR measurements using 100 nM of human CA-XII extracellular domain (ECD)
# Method: (§2) A ProteON GLC chip was activated with sEDS and sNHS prior to immobilizing approximately 4000 RUs of Goat anti-human Fc (Jackson InnumoResearch) via amine (lysine) coupling in 10 mM acetate buffer pH 4.5. This surface was then used to capture c2C7 and c12H8 on different flow cells. Recombinantly-expressed (CHO cells) SEC purified dimeric CA-IX extracellular domain (ECD) from human, mouse, dog and cynomolgus monkey and human CA-XII, were prepared in PBS with 0.02% Polysorbate-20. These dilutions were then flowed over the captured antibodies at 5 different concentrations from 100 nM to 1.23 nM using a flow rate 50 μL/min. […] Kinetic association and dissociation rate constants were determined from non-linear fitting of the observed responses to a 1:1 binding mocel. These rate constants were used to calculate the binding constant KD.
# rhCA-IX ECD Dimer = rhCA-IX ECD Dimer (Homo sapiens, UniProt Q16790); settings: recombinantly expressed Abs
# Method: The change in response due to binding was measured during this antigen injection phase followed by injection of running buffer to measure dissociation of the complex formed. Firstly, one buffer injection for 30 s at 100 μL/min in the ligand direction was used to stabilize the baseline. For each antibody variant capture, non-purified variants in cell-culture media were diluted to 4% in PBST. One to five variants or controls were simultaneously injected in individual ligand channels for 240 s at flow 25 μL/min. […] The first ligand channel was left empty to use as a blank control if required. This capture step was immediately followed by two buffer injections in the analyte direction to stabilize the baseline.
# Sensorgrams were aligned and double-referenced using the buffer blank injection and interspots, and the resulting sensorgrams were analyzed using ProteOn Manager software v3.1. The double-referenced sensorgrams were fit to the 1:1 binding model to determine the rate constants for association and dissociation (ka and kd) and the corresponding affinity (KD).
# [8] = target: dimeric CA-IX extracellular domain (ECD) from human (Homo sapiens, UniProt Q16790); test: CA-IX species binding by SPR; settings: CA-IX ECD 100 nM to 1.23 nM, read-out: Specific binding, Human
# Method: as §2, with “This surface was then used to capture c2C7 and c12H8 on different flow cells.” left out, “Polysorbate-20.” for “Polysorbate-20. These dilutions were then flowed over the captured antibodies at 5 different concentrations from 100 nM to 1.23 nM using a flow rate 50 μL/min.”
# rmCA-IX = target: T5, rmCA-IX (Mus musculus, UniProt Q8VHB5); test: Cross-reactivity determination by SPR; format: binding, murine; settings: 100 nM analyte
# T5 construct: purchased Sino Biologics Inc
# Method: (§3) CA proteins for the analyte injection were purchased from Sino Biologics Inc.; the proteins were reconstituted as recommended by the manufacturer and diluted to 100 nM in SPR running buffer for binding analysis.
# [9] = system: Human-induced pluripotent (iPS) cardiomyocytes; test: Cardiotoxicity in iPS cardiomyocytes (CellTiter-Glo); format: cell-based; settings: 10 nM; 3 and 5 days post-treatment; compared to non-specific human IgG1 negative control and corresponding ADC
# Method: Human-induced pluripotent (iPS) cardiomyocytes were obtained from Cellular Dynamics Inc. iPS cardiomyocytes (iCells) were thawed and cultured according to the manufacturers instructions. Briefly, cells were thawed, resuspended in iCell plating media, seeded in 0.1% gelatin-coated 96-well plates (15,000 cells/well) and maintained in a humidified incubator with 5% CO2 at 37° C. for 4 hours. Cells were then washed to remove debris and the plating media was replaced with iCell Maintenance Media which was then changed every other day during the course of the experiment. […] A non-specific negative control human IgG1 and the corresponding DM1-conjugated ADC were also used for treated the cells using the same protocol. Cell viability was measured 3 and 5 days post-treatment using the CellTiter-Glo Luminescent cell viability Assay (Promega, Madison, Wis.). Briefly, the plates and reagents were equilibrated to room temperature for 30 minutes. A volume of CellTiter-Glo reagent was added to the volume of cell culture medium present in each well and mixed on an orbital shaker for 45 minutes. The luminescence was then recorded using an EnVision plate reader (PerkinElmer Inc.)
# [10] = target: dimeric CA-IX extracellular domain (ECD) from cynomolgus monkey; test: CA-IX species binding by SPR; settings: CA-IX ECD 100 nM to 1.23 nM, read-out: Specific binding, Cynomolgus
# Method: as §2
# [11] = target: T6, dimeric CA-IX extracellular domain (ECD) from mouse (Mus musculus, UniProt Q8VHB5); test: CA-IX species binding by SPR; settings: CA-IX ECD 100 nM to 1.23 nM, read-out: Specific binding, Mouse
# T6 construct: SEC purified dimeric CA-IX extracellular domain (ECD) from human, mouse, dog and cynomolgus monkey; made in house; host or cells: CHO cells
# Method: as §2
# [12] = target: dimeric CA-IX extracellular domain (ECD) from dog; test: CA-IX species binding by SPR; settings: CA-IX ECD 100 nM to 1.23 nM, read-out: Specific binding, Dog
# Method: as §2
# rhCA-XII = target: T7, rhCA-XII (Homo sapiens, UniProt O43570); test: Cross-reactivity determination by SPR; format: binding; settings: 100 nM analyte
# T7 construct: purchased Sino Biologics Inc
# Method: as §3
# rhCA-XIV = target: T8, rhCA-XIV (Homo sapiens, UniProt Q9ULX7); test: Cross-reactivity determination by SPR; format: binding; settings: 100 nM analyte
# T8 construct: purchased Sino Biologics Inc
# Method: as §3
# rhCA-IV = target: T9, rhCA-IV (Homo sapiens, UniProt P22748); test: Cross-reactivity determination by SPR; format: binding; settings: 100 nM analyte
# T9 construct: purchased Sino Biologics Inc
# Method: as §3
# [13] = PNL6 Aga2-HA-CA9-MYC, clone 1A, fragment 1, aa 53-111, PG
# [14] = PNL6 Aga2-HA-CA9-MYC, clone 4A, fragment 4, aa 135-391, CA
# [15] = PNL6 Aga2-HA-CA9-MYC, clone 5A, fragment 5, aa 112-391, +CA
# [16] = PNL6 Aga2-HA-CA9-MYC, clone 6B, fragment 6, aa 135-414, CA+
# [17] = PNL6 Aga2-HA-CA9-MYC, clone 7B, fragment 7, aa 112-414, +CA+
# [18] = PNL200 CA9-Aga2-MYC, clone 12B, fragment 1, aa 53-111, PG
# [19] = PNL200 CA9-Aga2-MYC, clone 15B, fragment 4, aa 135-391, CA
# [20] = PNL200 CA9-Aga2-MYC, clone 16B, fragment 5, aa 112-391, +CA
# [21] = PNL200 CA9-Aga2-MYC, clone 17B, fragment 6, aa 135-414, CA+
# [22] = PNL200 CA9-Aga2-MYC, clone 18A, fragment 7, aa 112-414, +CA+
# [23] = PNL6 Aga2-HA-CA9-MYC, clone 3A, fragment 3, aa 1-136, SP+PG+
# [24] = PNL6 Aga2-HA-X-MYC, clone 11B, Plasmid Ctrl, Neg Ctrl
# [25] = PNL6 series, EBY100, no plasmid, Strain Ctrl, Neg Ctrl
# [26] = PNL200 CA9-Aga2-MYC, clone 14A, fragment 3, aa 1-136, SP+PG+
# [27] = PNL200 X-Aga2-MYC, clone 22A, Plasmid Ctrl, Neg Ctrl
# [28] = PNL200 series, EBY100, no plasmid, Strain Ctrl, Neg Ctrl
# T5 sequence (Q8VHB5 32-437): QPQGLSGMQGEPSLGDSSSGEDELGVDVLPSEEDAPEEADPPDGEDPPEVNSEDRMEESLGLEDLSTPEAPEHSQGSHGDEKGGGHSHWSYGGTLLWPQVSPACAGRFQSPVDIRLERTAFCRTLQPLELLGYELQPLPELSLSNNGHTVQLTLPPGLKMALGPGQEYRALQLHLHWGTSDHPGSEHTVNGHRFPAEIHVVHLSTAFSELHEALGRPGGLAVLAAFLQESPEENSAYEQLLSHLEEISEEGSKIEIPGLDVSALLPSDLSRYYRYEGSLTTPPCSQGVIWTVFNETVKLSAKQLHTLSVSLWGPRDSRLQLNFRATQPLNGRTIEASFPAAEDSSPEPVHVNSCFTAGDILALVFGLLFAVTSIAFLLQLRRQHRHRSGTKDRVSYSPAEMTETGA
# T8 sequence (Q9ULX7 16-337): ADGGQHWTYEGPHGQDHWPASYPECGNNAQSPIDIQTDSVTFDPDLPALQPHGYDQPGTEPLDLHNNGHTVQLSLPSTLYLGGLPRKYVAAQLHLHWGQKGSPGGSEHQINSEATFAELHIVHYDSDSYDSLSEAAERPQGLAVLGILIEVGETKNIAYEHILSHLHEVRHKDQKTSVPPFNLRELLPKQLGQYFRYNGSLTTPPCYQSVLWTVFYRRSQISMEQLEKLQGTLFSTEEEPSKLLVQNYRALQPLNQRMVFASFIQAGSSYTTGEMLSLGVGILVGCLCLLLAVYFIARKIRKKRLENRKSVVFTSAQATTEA
# T4 sequence (O43570 25-301 limits assumed): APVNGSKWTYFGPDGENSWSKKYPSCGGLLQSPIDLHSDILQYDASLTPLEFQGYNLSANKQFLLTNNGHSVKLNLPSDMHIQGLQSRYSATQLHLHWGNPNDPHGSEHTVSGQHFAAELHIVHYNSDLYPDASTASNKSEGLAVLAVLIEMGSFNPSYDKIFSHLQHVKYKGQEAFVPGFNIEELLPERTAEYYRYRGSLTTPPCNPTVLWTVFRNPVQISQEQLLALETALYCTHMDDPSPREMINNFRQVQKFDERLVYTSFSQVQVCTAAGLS
# T9 sequence (P22748 19-284): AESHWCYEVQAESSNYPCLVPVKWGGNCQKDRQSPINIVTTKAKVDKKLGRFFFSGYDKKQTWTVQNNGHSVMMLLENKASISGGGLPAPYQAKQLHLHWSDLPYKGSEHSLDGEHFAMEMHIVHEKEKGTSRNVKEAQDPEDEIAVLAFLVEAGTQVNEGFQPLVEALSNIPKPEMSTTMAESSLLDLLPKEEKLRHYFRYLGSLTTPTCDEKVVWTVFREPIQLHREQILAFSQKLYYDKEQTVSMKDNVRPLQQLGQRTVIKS
# T7 sequence (O43570 25-354): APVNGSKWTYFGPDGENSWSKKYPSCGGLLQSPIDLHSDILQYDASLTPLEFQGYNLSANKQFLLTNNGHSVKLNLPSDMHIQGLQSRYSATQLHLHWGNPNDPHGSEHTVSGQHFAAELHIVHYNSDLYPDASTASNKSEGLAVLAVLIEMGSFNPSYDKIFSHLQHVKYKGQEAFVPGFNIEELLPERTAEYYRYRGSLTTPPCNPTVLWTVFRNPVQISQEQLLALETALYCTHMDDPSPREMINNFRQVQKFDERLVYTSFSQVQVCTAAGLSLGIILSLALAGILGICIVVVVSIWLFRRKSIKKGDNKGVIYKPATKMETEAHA
# T6 sequence (Q8VHB5 32-390 limits assumed): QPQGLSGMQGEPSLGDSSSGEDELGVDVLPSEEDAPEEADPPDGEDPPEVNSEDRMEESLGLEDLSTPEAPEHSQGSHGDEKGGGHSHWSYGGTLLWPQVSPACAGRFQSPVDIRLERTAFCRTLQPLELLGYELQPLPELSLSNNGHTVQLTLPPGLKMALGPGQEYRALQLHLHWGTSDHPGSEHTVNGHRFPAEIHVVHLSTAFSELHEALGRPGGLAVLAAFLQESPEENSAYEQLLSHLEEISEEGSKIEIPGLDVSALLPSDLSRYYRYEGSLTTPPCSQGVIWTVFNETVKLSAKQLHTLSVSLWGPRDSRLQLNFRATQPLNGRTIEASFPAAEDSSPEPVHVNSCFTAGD
molecule,measurement,setting,value
B1,Anti-hCA-IX antibody binding intensity,[1]; [13],−
same,Anti-hCA-IX antibody binding intensity,[1]; [14],−
same,Anti-hCA-IX antibody binding intensity,[1]; [15],−
same,Anti-hCA-IX antibody binding intensity,[1]; [16],−
same,Anti-hCA-IX antibody binding intensity,[1]; [17],−
same,Anti-hCA-IX antibody binding intensity,[1]; [18],−
same,Anti-hCA-IX antibody binding intensity,[1]; [19],−
same,Anti-hCA-IX antibody binding intensity,[1]; [20],−
same,Anti-hCA-IX antibody binding intensity,[1]; [21],−
same,Anti-hCA-IX antibody binding intensity,[1]; [22],−
same,Anti-hCA-IX antibody binding intensity,[2]; [13],+
same,Anti-hCA-IX antibody binding intensity,[2]; [14],−
same,Anti-hCA-IX antibody binding intensity,[2]; [15],−
same,Anti-hCA-IX antibody binding intensity,[2]; [16],−
same,Anti-hCA-IX antibody binding intensity,[2]; [17],−
same,Anti-hCA-IX antibody binding intensity,[2]; [18],−
same,Anti-hCA-IX antibody binding intensity,[2]; [19],−
same,Anti-hCA-IX antibody binding intensity,[2]; [20],−
same,Anti-hCA-IX antibody binding intensity,[2]; [21],−
same,Anti-hCA-IX antibody binding intensity,[2]; [22],−
same,Anti-hCA-IX antibody binding intensity,[3]; [23],+
same,Anti-hCA-IX antibody binding intensity,[3]; [24],−
same,Anti-hCA-IX antibody binding intensity,[3]; [25],−
same,Anti-hCA-IX antibody binding intensity,[3]; [26],+
same,Anti-hCA-IX antibody binding intensity,[3]; [27],−
same,Anti-hCA-IX antibody binding intensity,[3]; [28],−
same,Anti-hCA-IX antibody binding intensity,[4]; [23],+
same,Anti-hCA-IX antibody binding intensity,[4]; [24],−
same,Anti-hCA-IX antibody binding intensity,[4]; [25],−
same,Anti-hCA-IX antibody binding intensity,[4]; [26],−
same,Anti-hCA-IX antibody binding intensity,[4]; [27],−
same,Anti-hCA-IX antibody binding intensity,[4]; [28],−
same,Anti-hCA-IX antibody binding intensity,[5],−
same,Anti-hCA-IX antibody binding intensity,"[6]; fragment 2, 15 aa, aa 47-61",−
same,Anti-hCA-IX antibody binding intensity,"[6]; fragment 3, 15 aa, aa 57-71",−
same,Anti-hCA-IX antibody binding intensity,"[6]; fragment 4, 15 aa, aa 67-81",−
same,Anti-hCA-IX antibody binding intensity,"[6]; fragment 5, 15 aa, aa 77-91",−
same,Anti-hCA-IX antibody binding intensity,"[6]; fragment 6, 15 aa, aa 87-101",−
same,Anti-hCA-IX antibody binding intensity,"[6]; fragment 7, 15 aa, aa 97-111",−
same,Anti-hCA-IX antibody binding intensity,"[6]; fragment 8, 15 aa, aa 107-121",−
same,Anti-hCA-IX antibody binding intensity,"[6]; fragment 9, 15 aa, aa 117-131",−
same,Anti-hCA-IX antibody binding intensity,"[6]; fragment 10, 15 aa, aa 126-140",−
same,Anti-hCA-IX antibody binding intensity,"[6]; fragment 12, 45 aa, aa 67-111",−
same,Anti-hCA-IX antibody binding intensity,"[6]; fragment 13, 34 aa, aa 107-140",−
same,binding to human CA-XII ECD,[7],no binding
same,ka,rhCA-IX ECD Dimer,5.88 × 10^5
same,kd,rhCA-IX ECD Dimer,5.76 × 10^−4
same,Kd,[8],< 20 nM
same,binding to rmCA-IX,rmCA-IX,no binding was detected
same,impact on cell viability,[9],"neither c2C7, c12H8 or their corresponding DM1 conjugate ADCs had any significant impact"
same,Kd,[10],< 20 nM
same,Kd,[11],> 20 nM
same,Kd,[12],> 20 nM
same,binding to rhCA-XII,rhCA-XII,no binding was detected
same,binding to rhCA-XIV,rhCA-XIV,no binding was detected
same,binding to rhCA-IV,rhCA-IV,no binding was detected
